Out of some 410,000 compounds screened, about 310 (0.076%) were called active. Inconclusive results, whose numbers are uncertain, are shown with a selection of clear calls. Calls come from the whole dose curve; as a rule, active = well fitted curve in the direction sought with a large enough effect; inconclusive = small, poorly fitted or top-dose-only effect; inactive = flat fitted curve, though single readings scatter. Potencies of inconclusive entries are doubtful fits and often do not repeat.
biological target: DNA dC->dU-editing enzyme APOBEC-3G (Homo sapiens) (UniProt Q9HC16); assay: qHTS for Inhibitors of Vif-A3G Interactions: qHTS; details: HeLa A3G-eYFP + Vif (tagged APOBEC3G with the HIV-1 protein that degrades it), YFP fluorescence, overnight; series mostly up to 46.1 µM; activity, negative = active: at the top concentration; note: nearly all actives have a fitted effect of over 60% in size;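 for activity, negative = active: hits raise eYFP signal because A3G escapes Vif-driven loss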
Procedure, shortened: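 Read-out is eYFP fluorescence (Ex 488/Em 500-530) from Vif-expressing HeLa A3G-eYFP cells; more signal means A3G escaped Vif-mediated degradation. Cells plated overnight, compound pinned in, incubated overnight at 37 deg C.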
% is set by controls: 0 for no effect and ±100 for the full control effect; potency is the fitted concentration of half-maximal effect; tags give direction and shape of the fitted curve.

Sequence of UniProt Q9HC16 (Q9HC16 whole entry, looked up): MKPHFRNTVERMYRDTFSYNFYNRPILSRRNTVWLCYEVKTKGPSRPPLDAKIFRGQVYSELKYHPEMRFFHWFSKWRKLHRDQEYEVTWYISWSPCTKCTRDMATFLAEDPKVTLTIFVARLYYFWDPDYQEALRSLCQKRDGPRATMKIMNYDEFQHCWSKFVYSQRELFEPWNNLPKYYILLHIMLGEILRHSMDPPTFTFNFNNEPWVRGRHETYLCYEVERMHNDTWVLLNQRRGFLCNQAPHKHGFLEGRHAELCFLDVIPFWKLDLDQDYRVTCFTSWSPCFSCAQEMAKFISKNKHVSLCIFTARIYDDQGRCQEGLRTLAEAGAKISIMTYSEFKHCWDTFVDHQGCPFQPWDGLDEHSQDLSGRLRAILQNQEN

| SMILES | Potency | activity, negative = active |
| --- | --- | --- |
| Cc1cc(/C=N/NC(=O)c2ccccc2F)c(C)n1-c1ccccc1 | inconclusive: 17.8 µM [inhibitor, single point] |  |
| CC1(C)CC(=O)C=C(C#CC2(O)CCCCC2)C1 | inconclusive: 35.5 µM [inhibitor, single point] |  |
| Nc1nc2ccc(Br)cc2s1 |  | inactive: -9.71% |
| CN(C)CCNC(=O)c1sc2nc(-c3ccccc3)cc(C(F)(F)F)c2c1N | inconclusive: 35.5 µM [inhibitor, single point] |  |
| C=CCSc1nc2ccccc2n1C(=O)/C=C/c1cc(OC)c(OC)c(OC)c1 | inconclusive: 7.94 µM [inhibitor, partial curve, poor fit] |  |
| CN(C)c1ccc(/C=C2/C[N+](C)(C)C/C(=C/c3ccc(N(C)C)cc3)C2=O)cc1 | inconclusive: 3.16 µM [inhibitor, partial curve, poor fit] |  |
| Cc1c(C#N)c(NC(=O)CCl)n(Cc2cccs2)c1C | inconclusive: 35.5 µM [inhibitor, single point] |  |
| Nc1ccccc1-c1nc2ccccc2[nH]c1=O | inconclusive: 8.91 µM [inhibitor, partial curve, poor fit] |  |
| CCc1ccccc1NC(=O)CN(C)C(=O)Cn1ncc(Cl)c(Cl)c1=O | inconclusive: 35.5 µM [inhibitor, single point] |  |
| CCOP(=O)(Cc1ccc(C(C)(C)CC(C)=O)o1)OCC |  | inactive: -2.86% |
| CN(C)c1ccc(/C=C(\C#N)c2ccccc2)cc1 | inconclusive: 1.26 µM [inhibitor, partial curve, poor fit] |  |
| Cc1ccc(CNC(=O)CSc2ncc3c(n2)-c2cc(Cl)ccc2N(C)S3(=O)=O)cc1 |  | inactive: -1.31% |
| O=C(CCl)Nc1cn(-c2ccccc2)nc1-c1ccccc1 | inconclusive: 25.1 µM [inhibitor, single point] |  |
| Cn1cc([N+](=O)[O-])c(C(=O)Nc2nc(-c3ccc(Cl)cc3)cs2)n1 | inconclusive: 1.26 µM [inhibitor, partial curve, poor fit] |  |
| Cc1cc(=O)[nH]c2c(C)c(N)ccc12 |  | inactive: -0.323% |
| COc1cccc(CNC(=O)c2c(C)nn(-c3cccc(C)c3)c2-n2cccc2)c1 |  | inactive: 2.54% |
| CCc1cc(C(=O)Cc2nc3ccccc3[nH]2)c(O)cc1O | inconclusive: 35.5 µM [inhibitor, single point] |  |
| COc1ccc(C2c3ccc4ccccc4c3Oc3ncn(CCCN(C)C)c(=N)c32)cc1 (stereo not drawn) | inconclusive: 25.1 µM [inhibitor, single point] |  |
| C[N+](C)(C)CCC(=O)N1C/C(=C/c2ccccc2)C(=O)/C(=C\c2ccccc2)C1 | active: 7.94 µM |  |
| Cc1cc(C(=O)COC(=O)c2ccc[nH]c2=O)c(C)n1-c1ccccc1F |  | inactive: 4.91% |
| COCCn1c(C)cc(C(=O)CSc2ccc(NC(C)=O)cc2)c1C |  | inactive: 0.751% |
| COc1ccc(C(C)(O)c2nc(-c3ccoc3)cs2)cc1 (stereo not drawn) | inconclusive: 35.5 µM [inhibitor, single point] |  |
| O=[N+]([O-])c1ccc(Oc2cccc3cccnc23)c([N+](=O)[O-])c1 | active: 10 µM |  |

| SMILES | Potency | activity, negative = active |
| --- | --- | --- |
| N#Cc1ccc(/C=C/C(=O)c2ccco2)cc1 | inconclusive: 25.1 µM [inhibitor, single point] |  |
| Cc1ccccc1NC(=S)NCc1ccc2[nH]c3c(c2c1)CCCC3 |  | inactive: 1.58% |
| CCCc1cc(=O)oc2c3c(cc(OCC(=O)N4CCC[C@H]4C(=O)O)c12)OC(C)(C)CC3 |  | inactive: 1.2% |
| Cc1cc(N2CCCC2)c(F)cc1/C=C\[N+](=O)[O-] | inconclusive: 35.5 µM [inhibitor, single point] |  |
| O=C1/C(=C/c2ccccc2)NC(=S)N1C(c1ccccc1)c1ccccc1 | inconclusive: 2.82 µM [inhibitor, full curve, poor fit] |  |
| O=C(CSC1=NCCS1)N1CCN(c2ccc(Cl)cc2)CC1 |  | inactive: 0.0066% |
| CCCC(=O)Nc1nc2ccc(S(=O)(=O)N3CCCCC3)cc2s1 | inconclusive: 2 µM [inhibitor, full curve, poor fit] |  |
| CC(C)c1ccc(/C=N/NC(=O)c2cccc(Cl)c2)cc1 | inconclusive: 8.91 µM [inhibitor, partial curve] |  |
| COC(=O)c1ccc2[nH]c3cccc(/C(=C/c4ccccc4)c4ccccc4)c3c2c1 |  | inactive: -5.36% |
| CN(C)S(=O)(=O)c1ccc(S(=O)(=O)N(Cc2ccco2)Cc2ccccc2Cl)cc1 |  | inactive: 1.11% |
| Cc1ccc2nc(-c3ccco3)c(Cc3cccc(F)c3)n2c1 | inconclusive: 22.4 µM [inhibitor, single point] |  |
| COc1ccc(-c2nc(C)c(CCNC(=O)C(=O)Nc3cccc(F)c3)s2)cc1OC |  | inactive: -1.87% |
| O=C1CN(C(=O)c2cc(Br)c(Br)s2)c2ccccc2N1 | inconclusive: 7.94 µM [inhibitor, partial curve, poor fit] |  |
| N#Cc1c(N)[nH]c2ccc(Sc3ccccc3)cc12 | inconclusive: 0.631 µM [inhibitor, full curve, poor fit] |  |
| COc1cc(C=C2CCCC(=Cc3ccc(OCC4CO4)c(OC)c3)C2=O)ccc1OCC1CO1 (stereo not drawn) | inconclusive: 3.16 µM [inhibitor, partial curve, poor fit] |  |
| C=CCN1C(=O)C2(NNc3ccccc3O2)c2ccccc21 (stereo not drawn) | inconclusive: 15.8 µM [inhibitor, partial curve, poor fit] |  |
| O=c1c(O)c(-c2cccs2)oc2ccc(Cl)cc12 | inconclusive: 3.16 µM [inhibitor, single point] |  |
| CSc1nsc(/C=C/Nc2ccc(Cl)cc2)c1C#N | inconclusive: 11.2 µM [inhibitor, partial curve] |  |
| O=C(Cn1ncc(Cl)c(Cl)c1=O)NC1CCCCC1 | inconclusive: 17.8 µM [inhibitor, partial curve, poor fit] |  |
| COc1ccc(NC(=O)c2cccc(Oc3ccc([N+](=O)[O-])cc3Cl)c2)cc1 | inconclusive: 3.16 µM [inhibitor, full curve] |  |
| COc1ccc(OCCn2c(C3CC(=O)N(c4ccc(F)cc4)C3)nc3ccccc32)cc1 (stereo not drawn) | inconclusive: 25.1 µM [inhibitor, single point] |  |
| Cc1ccc(S(=O)(=O)c2nc(-c3ccccc3Cl)oc2N(C)C)cc1 | inconclusive: 6.31 µM [inhibitor, single point] |  |
| CCOc1ccccc1NC(=O)CSc1nc2ccccc2c2nc(CCn3cncc3C)nn12 | inconclusive: 28.2 µM [inhibitor, single point] |  |

| SMILES | Potency | activity, negative = active |
| --- | --- | --- |
| CN1CCN(c2ccc(NC(=O)c3ccc(-c4ccc(Cl)cc4)o3)cc2)CC1 | inconclusive: 35.5 µM [inhibitor, single point] |  |
| CCOC(=O)c1ccc(NC(=O)CC2S/C(=N/N=C/c3c[nH]c4ccccc34)NC2=O)cc1 (stereo not drawn) | inconclusive: 35.5 µM [inhibitor, single point] |  |
| S=c1[nH]c2cc(Cl)ccc2s1 | inconclusive: 35.5 µM [inhibitor, single point] |  |
| CC(=O)c1cc(NC(=O)c2ccccc2)c(=O)oc1/C=C/N(C)C | inconclusive: 20 µM [inhibitor, single point] |  |
| Cn1c(=S)[nH]c2c(c1=O)C(C)(C)Cc1ccccc1-2 |  | inactive: 1.63% |
| CC1(C)CC(CC(=O)NNc2nc(-c3ccccc3)cs2)C(=O)O1 (stereo not drawn) |  | inactive: 1.46% |
| COc1ccc(-c2nnc(-c3cc4ccccc4oc3=O)o2)cc1 |  | inactive: 1.42% |
| C#CCN(C[C@@H]1[C@@H](OC(=O)NCc2ccc(OC)c(OC)c2)[C@@H](OC(=O)NCc2ccc(OC)c(OC)c2)Cn2c(=O)ccc(=O)n21)S(=O)(=O)c1ccc(C)cc1 | inconclusive: 22.4 µM [inhibitor, single point] |  |
| O=C(Nc1ccc(Nc2ccncc2)cc1)c1ccc([N+](=O)[O-])cc1 | inconclusive: 25.1 µM [inhibitor, partial curve, poor fit] |  |
| Cc1nnc(NC(=O)c2nc(S(=O)(=O)Cc3ccccc3C)ncc2Cl)s1 | inconclusive: 12.6 µM [inhibitor, single point] |  |
| Cc1ccccc1NC(=S)NC(NC(=O)COc1ccccc1)C(Cl)(Cl)Cl (stereo not drawn) |  | inactive: -0.652% |
| CC(C)C/C(O)=C/c1nc2cc(Cl)ccc2oc1=O |  | inactive: -1.04% |
| CCc1ccc(NC(=O)CC2C(=O)N(c3cccc(C)c3)C(=O)N2Cc2cccs2)cc1 (stereo not drawn) |  | inactive: 3.98% |
| Nc1ccc[n+](CC(=O)c2ccc(F)cc2)c1 | inconclusive: 3.16 µM [inhibitor, partial curve, poor fit] |  |
| O=C(CCl)Nc1ccc(S(=O)(=O)Nc2nccs2)cc1 | inconclusive: 35.5 µM [inhibitor, single point] |  |
| COc1ccc(NC(=O)C2CCCN(c3nnc(C)c4c(C)n(-c5ccccc5)nc34)C2)cc1Cl (stereo not drawn) | inconclusive: 35.5 µM [inhibitor, single point] |  |
| O=C(CN1C(=O)C(=O)N(Cc2ccccc2)C1=O)Nc1cc(Cl)cc(Cl)c1 | inconclusive: 35.5 µM [inhibitor, single point] |  |
| N/C(=N\OC(=O)c1ccc([N+](=O)[O-])cc1Cl)c1ccccn1 |  | inactive: -10.2% |
| COc1cccc(N2CC(O)=C(c3nc4ccccc4s3)C2=N)c1 | inconclusive: 2 µM [inhibitor, full curve, poor fit] |  |
| C=C(C)CNC(=S)NNC(=O)c1ccco1 | inconclusive: 1.78 µM [inhibitor, full curve, poor fit] |  |
| CCN(CC)c1ccc(NC(=O)C2CCN(S(=O)(=O)c3cnc[nH]3)CC2)c(C)c1 |  | inactive: 3.95% |
| O=C(c1ccccc1)c1nn(-c2ccc(Cl)cc2)c(=O)cc1C(F)(F)F | inconclusive: 10 µM [inhibitor, partial curve] |  |
